According to PubChem BioAssay AID624296 (National Center for Advancing Translational Sciences (NCATS), 2012):
Screen size: about 350,000 compounds; about 9,900 (2.8%) were called active. Inconclusive results, whose numbers are uncertain, are shown with a selection of clear calls. Calls come from the whole dose curve; as a rule, active = well fitted activation curve with a large enough effect; inconclusive = small, poorly fitted or top-dose-only effect; inactive = no such curve, though single readings can be large or run the other way. Potencies of inconclusive entries are left out as doubtful fits.

Experiment: A quantitative high throughput screen for small molecules that induce DNA re-replication in MCF 10a normal breast cells. Note: nearly all actives have a fitted effect of over 50% in size.
Settings: MCF 10A DNA re-replication, Hoechst nuclear intensity, 48 h; series mostly up to 46.1 µM
Potency is the fitted concentration of half-maximal effect; tags give direction and shape of the fitted curve.

SMILES | Potency
O=C(CSc1nc2ccccc2s1)NNC(=S)Nc1ccc(Br)cc1 | inconclusive [activator, single point]
COc1ccc(CC2(CO)CCN(Cc3cnn(-c4ccccc4)c3)CC2)cc1 | inconclusive [activator, single point]
CCc1nc2ccc(C(=O)N3CCN(c4ccc([N+](=O)[O-])cc4)CC3)cc2nc1CC | inconclusive [activator, single point]
CN1CCN(Cc2nc3ccccc3c(=O)n2Cc2nc(-c3ccc([N+](=O)[O-])cc3)cs2)CC1 | inconclusive [activator, single point]
N#CC(C#N)=C1C=CC=CN1/C(=C\c1ccccc1)C(=O)c1cccs1 | inactive
CCOc1cnn(-c2cc(Oc3ccc(C)cc3)ncn2)c(=O)c1Cl | inactive
O=C(COc1ccccc1)NC1=NCCS1 | inactive
CCCCCCn1c(SCC(=O)OC)nc2c1c(=O)[nH]c(=O)n2C | inactive
COc1ccc(-n2c(N)c(C(=O)NCc3ccco3)c3nc4ccccc4nc32)c(OC)c1 | active: 7.08 µM
COc1ccc(CNC(=O)COC(=O)C2CCC(C(C)(C)C)CC2)cc1 (configuration not stated) | inconclusive [activator, single point]
CCCCCC(=O)Nc1cccc(C2=NOC3(C2)C[C@@H](C(N)=O)N(C(=O)c2ccc(Cl)cc2)C3)c1 (some centres not stated) | inconclusive [activator, single point]
O=C(C1=NN(c2ccccc2)C2C(=O)N(c3ccccc3Cl)C(=O)C12)c1ccccc1 (configuration not stated) | inactive
COc1ccc(NC(=S)NC(NC(=O)/C=C/c2ccccc2)C(Cl)(Cl)Cl)cc1 (configuration not stated) | inconclusive [activator, single point]
Cc1ccc(C2C(C(=O)c3cc4ccccc4o3)=C(O)C(=O)N2c2cc(C)on2)cc1 (configuration not stated) | active: 9.2 µM
Clc1ccc(C2=CC(c3ccco3)n3ncnc3N2)cc1 (configuration not stated) | inconclusive [activator, partial curve]
Cc1cc(C)n(CC(=O)N/N=C/c2ccc([N+](=O)[O-])s2)n1 | inconclusive [activator, single point]
COc1ccc2[nH]c3c(Cl)ncnc3c2c1 | inconclusive [activator, partial curve, poor fit]
Cc1cc(C(=O)NC2CCCc3c2cnn3-c2ccccc2F)nc(C)n1 (configuration not stated) | inactive
COc1ccc(C)cc1NC(=O)CSc1nnc(-c2ccc(Br)cc2)o1 | active: 13 µM
CC(Sc1nnc(-c2ccccc2F)n1N)C(=O)NCC1CCCO1 (configuration not stated) | inactive
COc1cccc(-c2ccc(C#N)c(SCC(=O)NCCc3ccc(Cl)cc3)n2)c1 | inconclusive [activator, partial curve]
CN(CC(=O)N1CCCC1)S(=O)(=O)c1ccc2ccccc2c1 | inactive
Oc1ccccc1N1CCN(C(c2ccccc2)c2ccccc2)CC1 | inconclusive [activator, partial curve, poor fit]
CCCN1CCN(c2nc(-c3cccs3)nc3ccccc23)CC1 | inconclusive [activator, single point]

SMILES | Potency
CC(C)NC(=O)NC(=O)COc1ccc(Br)cc1Br | active: 23.1 µM
O=C1c2cccc3c(N4CCCCC4)ccc(c23)C(=O)N1CCO | inconclusive [activator, single point]
Cc1cc(C)n(-c2nc(N(c3ccccc3)c3ccccc3)nc(-n3nc(C)cc3C)n2)n1 | inconclusive [activator, single point]
Nc1ccc(S(=O)(=O)NN=Cc2ccccc2[N+](=O)[O-])cc1 | inactive
Cc1cc(C)nc(NS(=O)(=O)c2ccc(NC(=O)c3cc(-c4ccccc4)nc4ccccc34)cc2)n1 | inconclusive [activator, single point]
Cc1cc(=O)oc2c3c(cc(OCC(=O)Nc4ccc(CCO)cc4)c12)OC(C)(C)CC3 | inconclusive [activator, single point]
O=C(N/N=C/c1ccc(Br)o1)c1ccc2c(c1)OCCO2 | inactive
Oc1ccc(Cl)cc1C=Nc1ccc2c3c(cccc13)CC2 | inconclusive [activator, partial curve]
C[C@@H]1C[C@H](Nc2ccccc2)c2ccccc2N1C(=O)c1cccnc1 | active: 13 µM
Nc1nnc(SCC(=O)Nc2sc3c(c2C(=O)c2ccccc2)CCCC3)s1 | inactive
CSCCC1NC(=O)C(C(C)=NNC(N)=O)=C1O (configuration not stated) | inactive
CCOc1ccc2[nH]c3c(NCCOC)ncnc3c2c1 | inactive
Cc1nc2cc(NC(=O)N3c4ccccc4CC3C)ccc2n1C (configuration not stated) | inconclusive [activator, single point]
C/C(=N\NC(=O)c1ccc(-c2ccccc2)cc1)C1C(=O)c2ccccc2C1=O | inconclusive [activator, full curve]
Nc1ccc(Cl)c(S(=O)(=O)Nc2cccc(Cl)c2)c1 | active: 0.184 µM
CCC1Nc2ncnc(N3CCN(c4ccccc4)CC3)c2N(Cc2ccc(C)cc2)C1=O (configuration not stated) | inconclusive [activator, single point]
COC(=O)C1=CN(c2ccc(OC)cc2)C=C(C(=O)OC)C1c1ccc([N+](=O)[O-])cc1 | inactive
CC1CCC(C(C)C)C(OC(=O)COC(=O)c2cccn2C)C1 (configuration not stated) | inconclusive [activator, single point]
CCCS(=O)(=O)N1CCc2ccc(NC(=O)C3CCCO3)cc2C1 (configuration not stated) | inactive
O=C(CCl)Nc1ccc(Sc2ccc(NC(=O)CCl)cc2)cc1 | active: 6.51 µM
O=S(=O)(c1cccc(COc2ccc(Cl)cc2Cl)c1)N1CCOCC1 | inconclusive [activator, partial curve, poor fit]
Cc1cc(NC(=O)C2CCN(S(=O)(=O)c3c(C)noc3C)CC2)ccc1Br | active: 20.6 µM
COc1ccc(S(=O)(=O)Oc2c(OC)cc(C(=S)N3CCOCC3)cc2OC)cc1 | inactive
